Assay results from paper PMC8176763.
These are yes or no findings as the source states them, for the method shown. In cells and extracts the contact can be indirect. Some results given as binding are weak or reduced against the parent protein; the word gives no strength.

Protein sequences, listed by entry. Tags and fused reporters are not part of them. Lines headed by an entry give the natural chain unless they say otherwise; changes in a name come on top. Chains listed by the source or under a name are the forms on record and can include a tag or linker.
Src homology region 2 domain-containing phosphatase-1 (Shp1), endogenous (human (endogenous in A375MM)) (P29350, form named): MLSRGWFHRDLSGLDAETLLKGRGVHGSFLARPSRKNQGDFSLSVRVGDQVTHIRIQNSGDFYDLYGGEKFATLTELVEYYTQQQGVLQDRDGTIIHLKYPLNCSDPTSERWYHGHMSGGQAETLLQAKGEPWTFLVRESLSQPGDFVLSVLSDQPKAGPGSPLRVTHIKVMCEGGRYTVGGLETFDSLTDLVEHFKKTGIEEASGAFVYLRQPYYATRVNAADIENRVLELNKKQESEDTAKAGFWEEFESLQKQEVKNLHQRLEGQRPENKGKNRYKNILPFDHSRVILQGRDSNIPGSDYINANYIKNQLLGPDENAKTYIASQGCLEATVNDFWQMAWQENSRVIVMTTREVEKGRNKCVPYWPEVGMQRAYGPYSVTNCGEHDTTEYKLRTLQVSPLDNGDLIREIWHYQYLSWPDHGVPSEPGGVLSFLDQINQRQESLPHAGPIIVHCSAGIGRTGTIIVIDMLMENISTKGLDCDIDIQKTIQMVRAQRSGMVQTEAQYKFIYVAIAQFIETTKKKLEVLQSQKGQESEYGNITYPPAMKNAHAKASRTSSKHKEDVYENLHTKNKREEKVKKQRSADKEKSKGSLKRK
UniProt P60953: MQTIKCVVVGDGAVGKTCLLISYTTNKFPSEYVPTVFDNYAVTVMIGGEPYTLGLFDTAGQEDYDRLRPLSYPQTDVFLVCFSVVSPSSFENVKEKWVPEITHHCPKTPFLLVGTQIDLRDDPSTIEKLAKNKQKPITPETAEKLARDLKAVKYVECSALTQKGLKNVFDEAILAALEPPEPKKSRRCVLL
UniProt P27361: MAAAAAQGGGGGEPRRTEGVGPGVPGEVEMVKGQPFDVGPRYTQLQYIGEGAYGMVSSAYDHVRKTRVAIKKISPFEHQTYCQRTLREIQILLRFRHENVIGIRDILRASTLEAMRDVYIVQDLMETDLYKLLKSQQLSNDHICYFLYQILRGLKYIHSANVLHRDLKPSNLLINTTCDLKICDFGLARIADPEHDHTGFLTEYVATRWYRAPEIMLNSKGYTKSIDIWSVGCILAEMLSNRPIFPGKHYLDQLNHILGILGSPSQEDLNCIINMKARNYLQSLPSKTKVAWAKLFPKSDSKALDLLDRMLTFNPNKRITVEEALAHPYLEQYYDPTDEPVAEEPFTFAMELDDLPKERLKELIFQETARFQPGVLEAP
UniProt P28482: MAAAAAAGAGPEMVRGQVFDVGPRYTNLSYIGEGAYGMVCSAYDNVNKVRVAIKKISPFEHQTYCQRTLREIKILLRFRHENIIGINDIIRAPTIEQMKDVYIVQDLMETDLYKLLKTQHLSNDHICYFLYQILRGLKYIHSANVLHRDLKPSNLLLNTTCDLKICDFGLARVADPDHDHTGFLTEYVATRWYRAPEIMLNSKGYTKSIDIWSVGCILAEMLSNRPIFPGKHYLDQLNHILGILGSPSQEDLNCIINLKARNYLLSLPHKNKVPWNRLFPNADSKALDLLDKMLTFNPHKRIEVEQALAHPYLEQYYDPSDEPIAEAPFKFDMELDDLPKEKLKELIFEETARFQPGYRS
UniProt Q14247: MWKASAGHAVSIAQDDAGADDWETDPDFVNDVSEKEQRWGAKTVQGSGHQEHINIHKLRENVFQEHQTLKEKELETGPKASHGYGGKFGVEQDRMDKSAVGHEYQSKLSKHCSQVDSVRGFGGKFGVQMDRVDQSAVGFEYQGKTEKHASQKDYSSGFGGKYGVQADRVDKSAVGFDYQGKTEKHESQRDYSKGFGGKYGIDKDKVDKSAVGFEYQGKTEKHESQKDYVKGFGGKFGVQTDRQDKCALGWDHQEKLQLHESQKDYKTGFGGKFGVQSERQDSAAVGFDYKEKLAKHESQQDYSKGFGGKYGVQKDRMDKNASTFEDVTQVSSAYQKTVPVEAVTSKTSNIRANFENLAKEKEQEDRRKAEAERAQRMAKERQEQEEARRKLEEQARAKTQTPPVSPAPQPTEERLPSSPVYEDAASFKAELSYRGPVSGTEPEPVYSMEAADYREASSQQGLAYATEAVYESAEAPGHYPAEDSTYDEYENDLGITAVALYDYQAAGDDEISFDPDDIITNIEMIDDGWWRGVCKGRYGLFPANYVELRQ
UniProt Q05397: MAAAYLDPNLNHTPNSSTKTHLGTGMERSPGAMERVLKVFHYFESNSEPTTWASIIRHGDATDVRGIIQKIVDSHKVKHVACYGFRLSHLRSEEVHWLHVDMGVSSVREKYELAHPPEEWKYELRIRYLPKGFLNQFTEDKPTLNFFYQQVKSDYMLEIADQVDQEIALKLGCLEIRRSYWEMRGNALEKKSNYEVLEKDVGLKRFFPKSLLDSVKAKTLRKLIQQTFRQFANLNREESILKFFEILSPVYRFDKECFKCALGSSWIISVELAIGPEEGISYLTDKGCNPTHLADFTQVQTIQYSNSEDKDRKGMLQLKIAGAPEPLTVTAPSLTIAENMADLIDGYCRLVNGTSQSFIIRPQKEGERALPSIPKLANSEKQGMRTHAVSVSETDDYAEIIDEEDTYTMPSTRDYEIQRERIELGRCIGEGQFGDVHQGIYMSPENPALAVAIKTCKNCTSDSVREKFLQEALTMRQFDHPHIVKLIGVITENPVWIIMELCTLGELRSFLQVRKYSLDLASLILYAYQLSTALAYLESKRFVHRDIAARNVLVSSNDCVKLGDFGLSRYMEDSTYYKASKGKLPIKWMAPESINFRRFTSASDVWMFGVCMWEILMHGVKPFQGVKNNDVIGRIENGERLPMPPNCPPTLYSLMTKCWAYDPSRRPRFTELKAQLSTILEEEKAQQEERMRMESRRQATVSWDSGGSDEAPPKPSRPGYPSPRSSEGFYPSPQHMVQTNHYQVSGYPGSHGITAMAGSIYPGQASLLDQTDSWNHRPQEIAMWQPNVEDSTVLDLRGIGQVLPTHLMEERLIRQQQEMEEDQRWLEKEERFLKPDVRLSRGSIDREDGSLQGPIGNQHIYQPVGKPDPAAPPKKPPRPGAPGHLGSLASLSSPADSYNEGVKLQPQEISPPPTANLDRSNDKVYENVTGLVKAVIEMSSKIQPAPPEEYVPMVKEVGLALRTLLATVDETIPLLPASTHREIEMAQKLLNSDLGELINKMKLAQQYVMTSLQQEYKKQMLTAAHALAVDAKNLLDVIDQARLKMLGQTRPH

Assays:
[1] = target: Src homology region 2 domain-containing phosphatase-1 (Shp1), endogenous (human (endogenous in A375MM)) (UniProt P29350); assay: co-IP; A375MM cells on gelatin-coated dishes for 16 h; 1 mg lysate with 2 μg anti-Shp1 polyclonal antibody O/N at 4 °C, protein A Sepharose; lysis buffer 20 mM Tris-HCl pH 8.0, 150 mM NaCl, 1% Triton-X100; western blot
[2] = target: Src homology region 2 domain-containing phosphatase-1 (Shp1), endogenous (human (endogenous in A375MM)) (UniProt P29350); assay: proximity ligation; Duolink in situ PLA on fixed A375MM cells on fluorescent gelatin, rabbit anti-Shp1 and mouse anti-cortactin; untreated or 50 μM GroPIns for 1 h; IgG as negative control

Cdc42, endogenous (from UniProt P60953 1-191)
binding [1]: no binding

Erk1, endogenous (from UniProt P27361 1-379) (enzyme)
binding [1]: no binding

Erk2, endogenous (from UniProt P28482 1-360) (enzyme)
binding [1]: no binding

cortactin, endogenous (from UniProt Q14247 1-550)
binding [2]: binds
binding [1]: binds

focal adhesion kinase (FAK), endogenous (from UniProt Q05397 1-1052) (enzyme)
binding [1]: no binding
